Laboratory results reported in PubChem BioAssay AID1963576 (National Center for Advancing Translational Sciences (NCATS), 2024).
Out of some 46,000 compounds screened, about 60 (0.1%) were called active. Another 3% or so got no clear call; they are omitted. The call rests on the fitted dose curve; in most records, active means well fitted inhibition curve with a large enough effect; inconclusive means small, poorly fitted or top-dose-only effect; inactive means no such curve, though single readings can be large or run the other way. The list shows a part of the results.

Experiment: Primary qHTS assay for Inhibitors of ovarian cancer metastasis using an organotypic tumor microenvironment (TME) model. Further: nearly all actives have a fitted effect of over 65% in size.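 On activity change, negative = inhibition: plate controls were DMSO wells for no effect and tomatine positive control wells for full effect.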
Conditions: SKOV3ip1-GFP adhesion/invasion on 3D omental model, fluorescence; series mostly up to 45.8 µM; activity change, negative = inhibition: at the top concentration
How it was run: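 Primary human omental fibroblast/mesothelial 3D culture pre-formed 48 h. SKOV3ip1-GFP cells added with compounds (0.36-46 umol/L), incubated 2 h RT/16 h 37 C, fixed; GFP cells quantified at 488/509 nm.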

Activity change, negative = inhibition, inactive:
COc1ccccc1CNC(=O)CCCn1c(=O)c2cccn2c2ccccc21 11.9%, COc1ccc2c(c1)c1c(c(=O)n(-c3ccc(OC)c(OC)c3)c(=O)n1Cc1ccc(C)cc1)n2C 51%, COc1ccc(Cc2nc3ccc(C(=O)NCc4cc(Br)ccc4OC)cc3o2)cc1 -7.39%, O=C(Cc1ccccc1)Nc1cc(-c2nc3cc(Cl)ccc3o2)ccc1Cl 82.8%, N#Cc1ccccc1S(=O)(=O)N1CCC(Oc2ccc(-n3cnnn3)cc2)CC1 4.25%, Fc1ccc(-c2noc3ncnc(N4CCCCC4)c23)cc1 -3.23%, COc1ccc(-c2nc(SCC(=O)Nc3cccc(C(C)=O)c3)n[nH]2)cc1 11.5%, Cc1ccccc1CNC(=O)C1CCCN(c2nnc(-n3c(C)ccc3C)s2)C1 (stereo unspecified) 13.1%, O=C(O)CCNC(=O)c1ccc(N=Nc2ccc(O)c(C(=O)O)c2)cc1 18.7%, COc1ccc(-c2cc(C(=O)OCC(=O)c3cccc(OC)c3)c3cccc(Cl)c3n2)cc1 -6.51%, CCOC(=O)c1c(NC(=O)c2cc(=O)c3c(C)cc(C)cc3o2)sc2c1CCC2 1.79%, COc1ccc(NC(=O)C2CCN(c3nc(-c4ccc(OC)c(OC)c4)no3)CC2)cc1Cl -11.6%, Cc1ccc(C)c(NC(=O)Cn2nnc(C(=O)NCc3ccco3)c2N)c1 -0.521%, CNC(=O)C1CCN(C(=O)N2CC(C)Oc3ccc(C)cc32)CC1 (stereo unspecified) 20%, COc1ccc(CCC(=O)NCc2nc3cccnc3n2Cc2ccc(OC)cc2)cc1 -9.1%, CCOC(=O)c1c(NC(=O)CS(=O)(=O)c2ccc(Cl)cc2)sc2c1CCCC2 -2.92%, COc1ccc(Cl)cc1NC(=O)CSc1nc2ccccc2nc1N1CCCCC1 3.76%, Cc1nn(C)c2c1c(C(F)(F)F)cc(=O)n2C(C)C(=O)N1CCN(c2ccccc2)CC1 (stereo unspecified) 0.987%, CCOC(=O)c1cc(-c2ccccc2)n(CCCC(=O)Nc2ccc(C)c(C)c2)c1C 5.89%, Cn1c(=O)c2c(ncn2CC(=O)Nc2cc(Cl)cc(Cl)c2)n(C)c1=O -0.94%, O=C(CCCCn1c(=O)c2ccccc2n(CC(=O)Nc2cccc(F)c2)c1=O)NCc1ccccc1Cl 6.46%, COc1cc(NCc2ccc3nc(N)nc(N)c3c2C)cc(OC)c1OC 0.904%, CN(Cc1ccccc1)C(=O)c1cc2c(s1)-c1ccc(Cl)cc1SC2 0.175%, Cc1ccc(S(=O)(=O)N[C@@H](Cc2ccccc2)C(=O)CCl)cc1 -5.35%, COc1cc(/C=C/c2nc(C#N)c(NC(C)c3ccccc3)o2)cc(OC)c1OC (stereo unspecified) 29.6%, O=C(O)CCc1ccc(-c2ccccc2)n1-c1cccc(Br)c1 -6.14%, CC(C)(OCc1nn(Cc2ccccc2)c2ccccc12)C(=O)O 3.79%, O=C(c1ccc(Cl)cc1)n1nc(-c2ccco2)nc1NCc1cccs1 3.84%, CCc1ccc(Oc2nc3c(C)cccn3c(=O)c2/C=C(\C#N)c2nc3ccccc3s2)cc1 -1.53%, CCOC(=O)CCN(c1ccccc1)S(=O)(=O)c1ccc2[nH]c(=O)ccc2c1 -0.956%, Cc1ccc(NC(=O)CCSc2nc(-c3ccc4c(c3)OCO4)cc(C(F)(F)F)n2)cc1 -0.146%, O=C(NCC(c1cccs1)S(=O)(=O)c1cccs1)c1ccc(C(F)(F)F)cc1 (stereo unspecified) 2.19%, CCOc1ccccc1NC(=O)N1CCCn2nc(C)cc21 2.27%, O=C(Cc1csc2nc(-c3ccccc3)cn12)NCc1ccc(F)cc1 -10.2%, COc1cccc(N(Cc2nnc3n2CCCCC3)C(=O)Nc2cccc(Cl)c2)c1 -17.9%, CCOCCCNC(=O)CN1C(=O)c2c(c3ccccc3n2C)C1c1ccc(OC)cc1 (stereo unspecified) -9.75%, Cc1ccc(-n2ncc3c(N(CCO)Cc4ccccc4)ncnc32)cc1 9.03%, COc1ccc(N(C(=O)COc2ccc(Br)cc2)S(=O)(=O)c2ccc(C)cc2)cc1 1.57%, O=C(OCc1ccccc1Cl)c1ccc(-c2nnn(Cc3ccccc3Cl)n2)cc1 -1.89%, CCOC(=O)c1c(S(=O)(=O)N2CCCC(C(=O)Nc3ncccc3C)C2)c(C)n(C)c1C (stereo unspecified) 3.08%, Cc1ccc(NC(=O)Cn2cc(S(=O)(=O)NC(C)C)c(S(=O)(=O)NC(C)C)c2)cc1Cl -1.35%, Cc1cc(C)c(S(=O)(=O)Nc2cccc(-c3cn4ccccc4n3)c2)c(C)c1 -5.48%, Cc1ccc(NC(=O)Cn2c(=O)n(CCc3ccccc3)c(=O)c3c4c(sc32)CCCC4)cc1C -1.85%, Cc1ccc(C)c(CN2C(=O)c3ccccc3S(=O)c3ccc(C(=O)NCc4ccco4)cc32)c1 (stereo unspecified) -41%, COc1ccc(Cn2ccc3nc(C)c(C(=O)Nc4ccc(OC)cc4OC)cc3c2=O)cc1 -5.06%, Cc1ccc(-c2nnc(Nc3ccc(O)cc3)c3ccccc23)cc1S(=O)(=O)NCC1CCCO1 (stereo unspecified) -7.67%, CC(C)n1c(=O)c2oc3ccccc3c2n(Cc2ccccc2F)c1=O -8.07%, COc1cccc(NC(=O)c2ccc(CNS(=O)(=O)c3ccc4c(c3)C(C)(C)C(=O)N4C)cc2)c1 -4.92%, Cc1c(Cl)cccc1NC(=O)CSc1cc(-c2ccccc2)ncn1 -2%, O=C(/C=C/c1ccco1)Nc1ccc(Cl)c(-c2nc3cc(Cl)ccc3o2)c1 5.42%, Cc1ccc(N2CC(NC(=O)/C=C\c3ccc4c(c3)OCO4)CC2=O)cc1 (stereo unspecified) -13.1%, COc1ccc(CNC(=O)Cn2ccc3cc(S(=O)(=O)N4CCCCCC4)ccc32)c(OC)c1 -2.14%, Cc1cc2ccccc2n1-c1ccc(C(=O)N2CCC(C(=O)NCc3ccc(F)cc3)CC2)s1 -21.2%, COC(=O)c1c(SCC(=O)Nc2ccccc2OC)[nH]c2ccccc2c1=O -6.56%, COc1ccc(Oc2nc3c(c(=O)n(Cc4ccccc4Cl)c(=O)n3C)n2C)cc1 -20.5%, COc1ccc(-c2nc3scc(CCNS(=O)(=O)c4cccc(C(C)=O)c4)n3n2)cc1 18.9%, Cn1c(C(=O)N2CCC(C(=O)NCCc3ccc(S(N)(=O)=O)cc3)CC2)cc2sccc21 1.23%, CCOC(=O)c1ccc(NC(=O)c2cc3c(n(-c4ccc(C)cc4)c2=O)CC(C)(C)CC3=O)cc1 -3.82%, Cc1ccc(CCNC(=O)c2ccc(CSCc3ccc(C)cc3)o2)cc1 -10.6%, CC12CN3CC(C)(CN(C1)C3c1ccc(OCc3ccccc3)cc1)C2=O (stereo unspecified) -2.03%, CC1=C(c2ccc(Cl)cc2)S(=O)(=O)NC1=NCc1ccc(C)cc1 -5.93%, CN(C)c1cccc(C(=O)Nc2ccc(-c3nc4ccccc4s3)cc2)c1 -1.6%, Cc1ccc(NC(=O)CSc2nnc(C)c(=O)[nH]2)cc1 16.5%, Cc1noc(Cn2c(=O)c3ccccc3n(CC(=O)Nc3ccccc3C(F)(F)F)c2=O)n1 -3.81%, Oc1ccc(Nc2nc(-c3ccc(Cl)cc3)nc3ccccc23)cc1 -15.6%, CCOCCCn1c(=N)c(C(=O)NC2CCCC2)cc2c(=O)n3cccc(C)c3nc21 17.3%, Cc1cccc(-n2ncc3c(Nc4c(C)cc(C)cc4C)ncnc32)c1 -8.43%, CCOC(=O)c1cccc(Nc2cc(C)nc(C)n2)c1 1.35%, CCc1ccc(NC(=O)c2ccc3c(c2)c(C)c(C)n3Cc2ccccc2)cc1 -3.33%, CCCCOc1ccc(C2c3c(oc4ccccc4c3=O)C(=O)N2c2nc(C)c(C(=O)OCC)s2)cc1OC (stereo unspecified) -1.09%, COc1ccccc1CNC(=O)CN1C(=O)CCCc2ccccc21 4.85%, O=C(Nc1ccccc1Br)N1CCN2CCCCC2C1 (stereo unspecified) -1.85%, O=C(CCC1N=C2c3ccccc3N=C(SCc3cccc(F)c3)N2C1=O)NCc1ccc(F)cc1 (stereo unspecified) 4.2%

outcome, inactive:
Cc1cc2c(cc1C)-n1c(-c3ccccc3)c3c(=O)n(C)c(=O)n(C)c3c1C(c1ccco1)N2 (stereo unspecified), COc1ccc(C2CC(=O)c3cnc4c(-c5ccccc5)c(C)nn4c3C2)c(OC)c1 (stereo unspecified), CCCCNC(=O)CCCn1c(=O)c2ccccc2n(Cc2ccc(Cl)cc2)c1=O, CCc1c(C)nc2nncn2c1Nc1cccc(C)c1, COc1ccccc1N(C)C(=O)Cn1c(=O)oc2cc(S(=O)(=O)N3CCCC3)ccc21, CCOC(=O)c1c(C)[nH]c(C)c1S(=O)(=O)N1CCN(c2ccccc2OC)CC1, CC1=C(C(=O)Nc2ccccc2)C(c2ccccc2Cl)n2ncc(C(=O)Nc3cccc(C)c3)c2N1 (stereo unspecified), CCOC(=O)c1c(C)oc2ncnc(N3CCN(c4cccc(Cl)c4)CC3)c12, Clc1ccc(CCNC(c2cccc(Cl)c2)c2nnc(-c3ccccc3)o2)cc1 (stereo unspecified), Cn1cc(S(=O)(=O)N2CCCCCC2)cc1C(=O)N1CCN(c2ccc(Cl)cc2)CC1, CCOc1ccc(CNC(=O)Cn2c(=O)c3cccn3c3ccc(F)cc32)cc1OC, CCCCN(C)CCNC(=O)Cn1ncc2c([nH]c3ccccc32)c1=O, Cc1ccc(CNC(=O)Cn2c(=O)n(-c3ccccc3)c(=O)c3c2c2cc(C)ccc2n3C)cc1, COc1ccc(CCCc2nnc(SCC(=O)Nc3ccccc3F)o2)cc1C, Cc1ccc(NC(=O)CCc2c(C)nn(-c3ccc(N4CCOCC4)nn3)c2C)cc1F, Cc1ccc(NC(=O)C2CCN(c3nn4c(=O)cc(C)nc4s3)CC2)cc1, O=C(C1CC1)N1CCc2cc(Br)cc(S(=O)(=O)N3CCN(c4ccccc4F)CC3)c21, O=C(CSc1nc2c(oc3ccccc32)c(=O)[nH]1)Nc1cccc(Cl)c1, CCOC(=O)c1cccc(NC(=O)CCNS(=O)(=O)c2cccc3nonc23)c1, CCc1ccc(NC(=O)Cn2c(=O)ccc3cc(S(=O)(=O)N4CCCC4)ccc32)cc1, Cc1nnc2c3ccccc3nc(N3CCN(c4cccc(Cl)c4)CC3)n12, CCc1ccc(NC(=O)c2oc3c(c2C)-c2[nH]ncc2CC3)cc1, O=S(=O)(Nc1ccc(Br)cc1)c1ccc2nc(-c3ccccc3)[nH]c2c1
